# In all, about 390,000 compounds went through this assay and about 360 (0.092%) were called active. The inconclusive results got no clear call from the source; some entries with a clear call stand among them for comparison. Calls come from the whole dose curve; as a rule, active = well fitted inhibition curve with a large enough effect; inconclusive = small, poorly fitted or top-dose-only effect; inactive = no such curve, though single readings can be large or run the other way. Potencies of inconclusive entries are doubtful fits and often do not repeat.
# Target: Isocitrate dehydrogenase [NADP] cytoplasmic (Homo sapiens) (UniProt O75874)
# Assay: qHTS for Inhibitors of mutant isocitrate dehydrogenase 1 (IDH1): qHTS; note: nearly all actives have a fitted effect of over 65% in size
# Details: IDH1-R132H enzyme, NADPH consumption, diaphorase/resazurin fluorescence; series mostly up to 76.6 µM; activity change, negative = inhibition: at the top concentration
# Summary of the method: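 IDH1-R132H (0.5 ug/mL dispensed) in pH 7.5 Tris buffer was preincubated 30 min with compound, then given a substrate mix of 0.016 mM NADPH and 2 mM alpha-KG for 80 min at room temperature; remaining NADPH was read by diaphorase/resazurin fluorescence.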
# % is set by controls: 0 for no effect and ±100 for the full control effect; potency is the fitted concentration of half-maximal effect; tags give direction and shape of the fitted curve.
Structure (SMILES),"activity change, negative = inhibition",Potency
CC(C)(C)n1nc2c(c1NC(=O)c1cc3ccccc3o1)CS(=O)(=O)C2,inactive: -4%,
C[C@H](NC(=O)c1nc[nH]c1C(=O)N[C@@H](C)c1ccccc1)c1ccccc1,,"inconclusive: 44.7 µM [inhibitor, single point]"
O=C1CCN2C=Nc3cccc4ccc1c2c34,inactive: 18.3%,
Cc1ccc(CSCC(=O)Nc2ccc(N3CCOCC3)cc2N2CCOCC2)cc1,inactive: 2.03%,
Cc1c(OCC(=O)N[C@@H](Cc2c[nH]c3ccccc23)C(=O)O)ccc2c1oc(=O)c1ccccc12,,"inconclusive: 63.1 µM [inhibitor, single point]"
O=C1/C(=C/c2ccc(O)cc2)COc2ccccc21,inactive: 3.1%,
Cc1ccc(NC(=O)Cn2c(O)c(N=NS(=O)(=O)c3ccc(C)cc3)c3ccccc32)cc1,,"inconclusive: 36.9 µM [inhibitor, partial curve]"
COc1cc(C2C(C#N)=C(N)N(c3sc4c(c3C#N)CCCC4)C3=C2C(=O)CC(C)(C)C3)cc(OC)c1OC (centres undefined),,"inconclusive: 5.21 µM [inhibitor, partial curve, poor fit]"
S=c1[nH]nc(-c2ccccc2)o1,inactive: 0.967%,
Cc1nc(-c2ccc(S(=O)(=O)N3CCN(Cc4ccccc4)CC3)s2)cs1,inactive: -3.24%,
COC(=O)[C@@]12CCCCN1[C@H](c1ccc(-c3ccc(F)cc3)c(OC)c1)[C@@H]1C(=O)N(C)C(=O)[C@@H]12,,active: 39.8 µM
COC(=O)c1ccccc1NC(=O)N1CCC(n2c(C)nc3cccnc32)CC1,inactive: 11.8%,
COc1ccccc1-n1c(=O)c2c3c(sc2n(Cc2ccccc2F)c1=O)CN(C(C)=O)CC3,,"inconclusive: 35.5 µM [inhibitor, partial curve]"
CCOc1ccc(CCN2C(=O)C(=O)N([C@@H](CC(C)C)CN3CCC[C@@H]3CN3C(=O)C(=O)NC[C@@H]3Cc3ccccc3)C[C@@H]2CC(C)C)cc1,,"inconclusive: 44.7 µM [inhibitor, partial curve, poor fit]"
CCCNc1ncnc2c1c(-c1ccccc1)cn2-c1ccc(OCC)cc1,,active: 28.2 µM
CC(=O)Nc1ccc(Nc2c(CCC(C)C)c(C)c(C#N)c3nc4ccccc4n23)cc1,inactive: 11.3%,
CSCCC(NS(=O)(=O)c1ccc(Cl)cc1)C(=O)OCC(=O)c1c(C)[nH]c2ccccc12 (centres undefined),inactive: 4.85%,
C=CCc1cc(Cl)ccc1OCCCn1ccnc1,,"inconclusive: 58.5 µM [inhibitor, single point]"
CCCOC(=O)CSC1=C(C#N)C(c2ccccc2OC)C(C#N)C(=O)N1 (centres undefined),,"inconclusive: 46.5 µM [inhibitor, partial curve]"

# — PubChem BioAssay AID602179 (National Center for Advancing Translational Sciences (NCATS), 2012)
